Screen size: about 44,000 compounds; about 340 (0.77%) were called active. Inconclusive results (about 5%) are left out. Calls come from the whole dose curve; as a rule, active = well fitted inhibition curve with a large enough effect; inconclusive = small, poorly fitted or top-dose-only effect; inactive = flat fitted curve, though single readings scatter. Some of the results follow.
Experiment: Acumen qHTS Assay for Inhibitors of the mTORC1 Signaling Pathway in MEF (Tsc2-/-, p53-/-) Cells: Sytravon;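 note: plate controls were DMSO for no effect and rapamycin for full effect; nearly all actives have a fitted effect of over 50% in size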
Conditions: phospho-rpS6 immunofluorescence/PI, 24 h; series mostly up to 38.3 µM; activity change, negative = inhibition: at the top concentration
How it was run: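 Cell-based qHTS: Tsc2-/- p53-/- MEF, 24 h cpd, 37 °C; fix/perm, anti-phospho-S6 Alexa-488 + PI; Acumen 488 nm scan; pS6/PI ratio, % positive cells; rapamycin 7.5 nM = inhibition ref; PI count = viability.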

Activity change, negative = inhibition, inactive:
CCOc1ccc(N(CC)C(=O)CSc2n[nH]c(-c3ccccc3)n2)cc1 1.48%
CCn1cc(C(=O)NCc2ccccc2Cl)c(=O)c2cc(S(=O)(=O)N3CCCCC3)ccc21 -1.77%
O=C(Cc1ccccc1)Nc1cccc(-c2nc3cccnc3s2)c1 -7.12%
O=C(NC1CCCC1)c1ccc2c(c1)N(Cc1ccccc1F)C(=O)c1ccccc1S2 0.956%
COc1ccc(-c2coc3c2c(C)cc2oc(=O)cc(C)c23)cc1 5.21%
Cc1oc(-c2ccc(C(=O)NCc3ccccc3)cc2)nc1CS(=O)(=O)c1ccccc1 -3.04%
COc1ccc(CCN2C(=O)N(c3ccc(F)cc3)C(=O)C2CC(=O)Nc2ccc(F)c(F)c2)cc1 (stereo not given) -1.71%
CCOc1ccc(N(CC(=O)NCc2ccc(Cl)cc2)S(=O)(=O)c2c(C)noc2C)cc1 6.53%
COCCCNC(=O)C1CCC(Cn2c(=O)c3sccc3n(Cc3ccc(F)cc3)c2=O)CC1 (stereo not given) -0.46%
Cc1c(NC(=O)c2ccc(N3CCC(C)CC3)c([N+](=O)[O-])c2)cccc1-c1nc2ccccc2o1 -0.634%
Cc1ccc(C(=O)Nc2ccc(OCc3cc(=O)n4c5c(sc4n3)CCCC5)cc2)cc1 -1.44%
Cc1cccc(N2CCN(C(=O)c3oc(=O)c4ccccc4c3-c3ccccc3)CC2)c1C -11.2%
Cc1cc(C)cc(NC(=O)c2sc3nc(-c4cc5ccccc5oc4=O)[nH]c(=O)c3c2C)c1 5.3%
COC(=O)c1c(C)sc(-c2c(-c3cccc(Cl)c3)[nH]c3c2c(=O)[nH]c(=O)n3C)c1O -4.4%
COc1ccc(CCNC(=O)CCc2c(C)nc3c(c(C)nn3-c3ccccc3)c2C)c(OC)c1 -6.15%
CCc1cccc(C)c1NC(=O)C(C)Sc1nc2c(c(=O)[nH]1)CCCC2 (stereo not given) 0%
COc1ccccc1C(=O)Nc1nnc(SCc2cc(=O)n3ccc(C)cc3n2)s1 -6.59%
Cc1ccc(OCc2ccc(-c3nc(C#N)c(N4CCC(C)CC4)o3)o2)cc1 1.93%
COc1ccc(-c2noc(N3CCN(c4cccc(C)c4C)CC3)n2)cc1OC 0.136%
CCCNC(=O)CCC(=O)N1Cc2ccccc2Oc2ncccc21 -14.7%
CCc1ccccc1NC(=O)C1CCN(C2=NS(=O)(=O)C(c3ccc(C)c(C)c3)=C2C)CC1 0.529%
COc1ccc(C(=O)CN2C(=O)N(c3cc(C)ccc3C)S(=O)(=O)c3ccccc32)cc1 -2.13%
CCOC(=O)c1c(C)oc2nc(C)nc(NC(C)c3ccccc3)c12 (stereo not given) 6.93%
CC1=C(C(=O)OCc2ccc(C)cc2)C(c2ccccc2Cl)CC(=O)N1 (stereo not given) -5.12%
Cc1cccc(OCC(=O)Nc2ccc3c(c2)nc(CCNC(=O)c2ccco2)n3C)c1 0%
Cc1nc2c3ccccc3nc(NNC(=O)CCC(=O)N3CCN(c4ccccc4)CC3)n2n1 -4.56%
COc1ccc(Br)cc1CNC(=O)c1ccc2c(c1)nc1n2CCCCC1 -0.0609%
Cc1cccc(CN2C(=O)c3ccccc3S(=O)(=O)c3ccc(C(=O)N4CCN(c5cc(C)ccc5C)CC4)cc32)c1 -6.03%
COc1cccc(C(=O)n2nc(-c3ccco3)nc2NCc2cccs2)c1 7.46%
CCc1ccc(-c2cc3c(N4CCN(c5ccccc5)CC4)nccn3n2)cc1 -2.16%
Cc1cccc(-c2nc3nc(C)cc(N4CCN(c5ccccc5)CC4)n3n2)c1 0.0994%
COc1ccc(N2CCN(C(=O)CCn3cnc4onc(-c5ccc(F)cc5)c4c3=O)CC2)cc1 -19.9%
COc1ccc(NC(=O)N2CCN(c3cc(-c4noc(C)n4)ccc3C)CC2)c(OC)c1 1.77%
CC(C)(C)C1CCc2c(sc(NC(=O)c3ccncc3)c2C(=O)Nc2ccccc2Cl)C1 (stereo not given) -0.918%
COc1cccc(N2CCN(Cc3nnc(-c4ccc5c(c4)OCO5)o3)CC2)c1 -2.07%
COc1ccc(N(CC(=O)NCc2ccc(C)cc2)S(=O)(=O)c2c(C)[nH]c(=O)[nH]c2=O)cc1 -7.03%
Cc1cc(C)cc(N2CCn3c2nc2c3c(=O)n(CCc3ccccc3)c(=O)n2C)c1 3.14%
Cc1ccc(-c2nc3c4ccccc4n(Cc4cccc(Cl)c4)c(=O)n3n2)cc1 1.06%
CCN1CCN(CCCNC(=O)Cn2nc(C)n3c(cc4cc(C)ccc43)c2=O)CC1 -4.52%
CCOC(=O)Cc1ccc(NC(=O)N2CC(CC)Oc3ccccc32)cc1 (stereo not given) 8.66%
CCc1ccc(S(=O)(=O)c2nnn3c2nc(N2CCCC(C)C2)c2cc(Cl)ccc23)cc1 (stereo not given) 0.312%
COc1ccc2nc(N3CCN(C(=O)c4ccco4)CC3)sc2c1 -1.24%
COc1ccc(OC)c(CNC(=O)C2COc3ccccc3C2)c1 (stereo not given) -0.976%
Cc1nc2ccccc2n1CCc1nc2c3ccccc3nc(SCC(=O)Nc3ccc(C(C)C)cc3)n2n1 -5.8%
O=C(Nc1nonc1-c1ccc(Br)cc1)c1ccco1 -0.648%
Cc1ccc(NC(=O)CSc2[nH]c(=O)ncc2C)cc1 3.28%
COc1cccc(Cn2cc(S(=O)(=O)c3ccc(C)cc3)c(=O)c3cc4c(cc32)OCO4)c1 0.425%
Cc1ccc(NC(=O)Cc2ccc(NC(=O)N3CCCCc4ccccc43)cc2)cc1 -10.7%
Clc1ccc(CSc2nc3ncccc3[nH]2)cc1 -7.07%
CCN1CCN(C(c2ccccc2)c2c(O)cc(C)n(CCOC)c2=O)CC1 (stereo not given) 4.14%
CSc1cccc(NC(=O)Cn2nnc(C(=O)NCCc3ccccc3)c2N)c1 -17.6%
CCCCC(=O)Nc1ccc(C(=O)OCc2cc(=O)n3nc(C4CC4)sc3n2)cc1 14.3%
COC(=O)C1=C(c2ccccc2)c2ccccc2S(=O)(=O)N1CC(=O)Nc1ccccc1C(F)(F)F -15.2%
COc1ccc(S(=O)(=O)Cc2ccc(C(=O)NC3CCCCC3)o2)cc1 -1.46%
Cn1c(=O)n(CCc2ccccc2)c(=O)c2c1nc1n2CCN1c1ccc(Cl)cc1 6.41%
Cc1cccc(N2CCN(c3ccc(C(=O)O)cc3NC(=O)c3ccccc3F)CC2C)c1 (stereo not given) -8.69%
CC(C(=O)Nc1ccccc1C(F)(F)F)n1nc(-c2ccccc2)c2c(c1=O)CCCC2 (stereo not given) -13.3%
CC(=O)c1ccc(N2CCN(C(=O)Nc3cccc(F)c3)CC2)cc1 -14.6%
CCN(CC)c1ccc(C(=O)NCc2ccc3c(c2)CCN3C(C)=O)cc1 -0.237%
Cc1cc(C)c2c(-n3cccc3)c(C(=O)NCCc3ccccc3)sc2n1 0%
CC(C)CC(=O)Nc1c(C(=O)N2CCN(c3ccccc3F)CC2)oc2ccccc12 -0.325%
COc1cccc(-c2nnc3n(Cc4ccccc4Cl)c(=O)c4ccccc4n23)c1O -2.32%
O=C(NCc1ccc2c(c1)CCN2C(=O)c1ccncc1)c1ccc(Cl)cc1 2.27%
CC(C)Oc1ccc(CNC(=O)CCCn2c(=O)c3cccn3c3cccnc32)cc1 -23.4%
Cc1ccc2c(=O)c(C(=O)c3ccccc3)cn(CC(=O)Nc3ccccc3)c2n1 -0.462%
COCCN(CCOC)C(=O)c1cc2c(=O)n3ccccc3nc2n1C -4.71%
Cc1c(Cl)cccc1NC(=O)CN1C(=O)CCn2nc(-c3cccn3C)cc21 0.44%
CCn1c(NCc2cccc(Cl)c2)nc2ccccc21 -0.729%
COc1cccc(C(=O)NC2=NC(c3ccc(N(C)C)cc3)CC(=O)N2)c1 (stereo not given) 0.508%
O=C(CSc1nc(-c2ccccc2)cn1-c1ccccc1)Nc1ccccc1 -2.57%
COc1cc(-c2nc3ccc(C)cn3c2Nc2ccc(Cl)cc2)ccc1O 1.71%
O=C(NCCCN1CCCCC1)c1cc(Sc2ccc(Cl)cc2)nc2ccccc12 -0.329%
Cc1cc(C)c(C(=O)Nc2ccccc2)c(SCC(=O)Nc2ccc(Br)cc2C)n1 -0.618%
Cc1ccc(Cn2c(C(=O)O)c(CNCCc3ccco3)c3ccc(C)cc32)cc1 -1.22%
O=S(=O)(c1ccc(Br)cc1)c1nnn2c1nc(NCc1cccs1)c1sccc12 -1.54%
CC(=O)c1ccc(N2CCN(C3C(=O)c4ccccc4N3C(C)=O)CC2)cc1 (stereo not given) 5.96%
COc1ccc(-c2cc(C(=O)NCCc3ccccc3)c3cc(C(C)C)ccc3n2)cc1 12%
COc1ccc(Cl)cc1NC(=O)c1nn(C)c2c1CS(=O)(=O)c1ccccc1-2 6.98%
COc1ccccc1NC(=O)CCn1c(=O)oc2cc(Cl)ccc21 1.06%
COCCCNC(=O)C1CCN(c2cc(C)nc3c(-c4ccc(OC)c(OC)c4)c(C)nn23)CC1 -0.342%
CCOc1cc(-c2nc(-c3ccc(-c4ccc(OC)cc4)nc3OC)no2)cc(OCC)c1OCC -0.0268%
COc1ccc(-n2cc(C(=O)NCc3cccc(OC)c3)c3ccccc3c2=O)cc1 -15.3%
CC1=C(C(=O)Nc2ccccc2C)C(c2ccccn2)n2nc(SCc3ccccc3F)nc2N1 (stereo not given) -7.28%
O=C(CSc1nc(=O)n(Cc2ccco2)c2c1CCC2)NCc1ccc(F)cc1 0.477%
COc1ccc2nc(NC(=O)c3ccc(S(=O)(=O)N4CCCC(C)C4)cc3)sc2c1 (stereo not given) 2.24%
Cc1nc2nc(NC(=O)c3ccc(Cl)cc3)[nH]n2c(=O)c1Cc1ccccc1 -3.81%
CCc1ccc(NC(=O)CSc2nc(=O)n(Cc3ccco3)c3c2CCC3)cc1 -4.51%
Cc1ccc(S(=O)(=O)c2nnn3c2nc(N2CCN(c4ccccc4F)CC2)c2ccccc23)cc1C 0.56%
CC(NC(=O)Cn1c(-c2cccs2)cc2cc(F)ccc21)c1ccccc1 (stereo not given) -15.6%
O=C(NC1CC(=O)N(c2ccc(Cl)cc2)C1)c1cccs1 (stereo not given) 0.132%
COc1ccc(-c2cc(C(=O)Oc3ccc(C)c(C)c3)c3ccccc3n2)cc1 13.8%
CCC(C)NC(=O)c1c(-c2ccccc2)c(-c2ccccc2)nn(C)c1=O (stereo not given) -13.9%
Cc1ccc(C(=O)NC2(C(F)(F)F)C(=O)Nc3c2c(=O)[nH]c(=O)n3CCc2ccccc2)cc1 (stereo not given) -2.21%
CCOC(=O)c1cc(-c2ccccc2)n(CCCC(=O)Nc2ccc(C)cc2C)c1C -10.9%
Cc1cccc(-n2c3nc(=O)n(C)c(=O)c-3cc3ccc(Cl)cc32)c1C -0.651%

Reference: PubChem BioAssay AID493208 (National Center for Advancing Translational Sciences (NCATS), 2011)
